Measurements from the supplement of paper PMC10126150.
Values marked as one replicate rest on one cluster of the flow cell; about a third of the high ones do not repeat.
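Note: ATP exposure 15 min at 22 °C before imaging.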

These sequences were tested on ATP (assay: switch fluorescence ratio, 500 uM ATP over buffer (Cy3 cluster intensity, sum of 5 cycles each) (fold (ratio)); higher = stronger signal-on switching upon ATP binding; sequences stand for … in TCGTCGGCAGCGTCAGATGTGTATAAGAGACAGTTTTTTTTTTTTTTTTTTTTTTTTT…TC). Details: aptamer strand: ATP DNA aptamer (quencher-CACCTGGGGGAGTATTGCGGAGGAAGG + anchor), 100 nM annealed; ATP concentration: 500 uM; one replicate.
How it was run: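 Cy3-labelled switching-strand clusters on a modified Illumina MiSeq flow-cell were annealed to 100 nM quencher-labelled ATP aptamer, imaged in selection buffer, then imaged after 15 min with 500 uM ATP at 22 °C. Five buffer/ATP cycles ran, with NaOH stripping and re-annealing between them. The fluorescence ratio is summed target-cycle over summed buffer-cycle Cy3 intensity per cluster, averaged per switch-domain sequence. Clusters outside 100-1000 RFU were excluded.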
TGATATGTAG gave a switch fluorescence ratio of 0.911.
With TGATATTCTG the switch fluorescence ratio was 1.01.
Sequence TGATCAGGCA has a switch fluorescence ratio of 0.98.
Sequence TGATCCTGCG has a switch fluorescence ratio of 1.03.
TGATCGAGGC showed a switch fluorescence ratio of 0.987.
In the case of TGATCTTCT, the switch fluorescence ratio is reported as 0.993.
Work on TGATGAGGAC yielded a switch fluorescence ratio of 1.
TGATGAGTTC showed a switch fluorescence ratio of 1.01.
TGATGGATCA showed a switch fluorescence ratio of 0.998.
TGATGGTAAC was tested, and the switch fluorescence ratio was 1.01.
TGATGTATAA gave a switch fluorescence ratio of 0.991.
TGATGTCTTA gave a switch fluorescence ratio of 0.994.
For TGATGTGCCT, the switch fluorescence ratio was 1.05.
TGATTAACGG was tested, and the switch fluorescence ratio was 1.04.
TGATTACGAT was tested, and the switch fluorescence ratio was 1.03.
With TGATTAGCGA the switch fluorescence ratio was 0.993.
TGATTCAGTC was tested, and the switch fluorescence ratio was 1.
Work on TGATTCAGTG yielded a switch fluorescence ratio of 1.
For TGATTCCTCC, the switch fluorescence ratio was 1.97.
For TGATTGTAA, the switch fluorescence ratio was 1.02.
TGATTGTGGA gave a switch fluorescence ratio of 0.995.
TGATTTAATG showed a switch fluorescence ratio of 0.969.
With TGATTTCGAG the switch fluorescence ratio was 0.955.
Work on TGATTTGAAT yielded a switch fluorescence ratio of 1.13.
Sequence TGATTTTCAC has a switch fluorescence ratio of 1.52.
TGCAAACGTT showed a switch fluorescence ratio of 1.05.
Work on TGCAAATGT yielded a switch fluorescence ratio of 1.01.
Sequence TGCAACCGTT has a switch fluorescence ratio of 0.972.
Sequence TGCAACGCCG has a switch fluorescence ratio of 1.1.
Sequence TGCAACGCTC has a switch fluorescence ratio of 1.08.
TGCAAGTCTC was tested, and the switch fluorescence ratio was 1.09.
For TGCAATAAGC, the switch fluorescence ratio was 1.4.
TGCAATTAAT gave a switch fluorescence ratio of 1.13.
In the case of TGCACCACTG, the switch fluorescence ratio is reported as 0.976.
TGCACGGATA was tested, and the switch fluorescence ratio was 1.04.
Sequence TGCACGTAGG has a switch fluorescence ratio of 1.04.
In the case of TGCACTTGCT, the switch fluorescence ratio is reported as 1.07.
For TGCAGAAAAA, the switch fluorescence ratio was 1.01.
TGCAGCGGAG was tested, and the switch fluorescence ratio was 1.03.
Work on TGCAGCTTTA yielded a switch fluorescence ratio of 1.08.
Sequence TGCAGTAGGC has a switch fluorescence ratio of 1.04.
With TGCAGTATCG the switch fluorescence ratio was 0.97.
Sequence TGCAGTTTGG has a switch fluorescence ratio of 0.966.
With TGCATAAGAG the switch fluorescence ratio was 1.05.
Work on TGCATAATGT yielded a switch fluorescence ratio of 1.01.
Sequence TGCATACATA has a switch fluorescence ratio of 1.
Sequence TGCATGGAAT has a switch fluorescence ratio of 0.979.
TGCATTCTCG was tested, and the switch fluorescence ratio was 1.08.
TGCATTGAGT was tested, and the switch fluorescence ratio was 1.01.
With TGCATTGT the switch fluorescence ratio was 1.01.
TGCATTTCGA gave a switch fluorescence ratio of 0.977.
In the case of TGCCAACGGT, the switch fluorescence ratio is reported as 0.968.
In the case of TGCCAAGGGC, the switch fluorescence ratio is reported as 1.03.
TGCCAAGTCA showed a switch fluorescence ratio of 0.976.
With TGCCAATGCG the switch fluorescence ratio was 1.08.
TGCCAGGGCT showed a switch fluorescence ratio of 0.874.
In the case of TGCCAGTGCA, the switch fluorescence ratio is reported as 1.02.
Work on TGCCATACCT yielded a switch fluorescence ratio of 1.14.
TGCCATGGCT gave a switch fluorescence ratio of 1.11.
TGCCATGTCC gave a switch fluorescence ratio of 0.988.
In the case of TGCCATTGCT, the switch fluorescence ratio is reported as 0.99.
TGCCCATACA gave a switch fluorescence ratio of 1.02.
Work on TGCCCCCCC yielded a switch fluorescence ratio of 2.35.
Work on TGCCCCTCTT yielded a switch fluorescence ratio of 0.971.
In the case of TGCCCGCTTG, the switch fluorescence ratio is reported as 1.04.
For TGCCGCCACG, the switch fluorescence ratio was 1.04.
With TGCCGCGAGC the switch fluorescence ratio was 1.45.
TGCCGCGTGG showed a switch fluorescence ratio of 1.
TGCCGGGCAC was tested, and the switch fluorescence ratio was 1.39.
Work on TGCCGGGCGA yielded a switch fluorescence ratio of 1.04.
TGCCGGTGG showed a switch fluorescence ratio of 0.96.
For TGCCGTAGAA, the switch fluorescence ratio was 0.997.
TGCCGTTCA was tested, and the switch fluorescence ratio was 0.997.
Work on TGCCTACTTT yielded a switch fluorescence ratio of 1.03.
Sequence TGCCTGCAGA has a switch fluorescence ratio of 1.02.
TGCCTTATAC gave a switch fluorescence ratio of 1.55.
